From patent US7741479B2, “Urea inhibitors of MAP kinases” (Locus Pharmaceuticals, Inc., priority 2004, dated 2010)
Some results were stated once for a whole list of compounds, not compound by compound.

molecular target: T1, p38 (Homo sapiens, UniProt Q16539); experiment: Protein Kinase Assay (33P incorporation from γ-[33P]ATP into GST-ATF-2 substrate); format: biochemical; conditions: tested at 3 μM according to the procedure described above
T1 construct: made in house
Procedure: Human non-activated p38 kinase (MW=43 kDa) was purified according to the protocol described herein. Chemicals were purchased from Calbiochem. Fluorescence characterizations were conducted using a Cary Eclipse (Varian Analytical Instruments, Walnut Creek, Calif.). Research-grade CM5 sensor chips and coupling reagents (N-ethyl-N′-dimethylaminopropylcarbodiimide (EDC) N-hydroxysuccinimide (NHS), and 1 M ethanolamine HCl, pH 8.5) were purchased from Biacore AB (Uppsala, Sweden). The biosensor analyses were conducted using a Biacore 3000 SPR instrument. The kinetic analyses were carried on a Molecular Devices spectrophotometer (Molecular Devices Corporation, CA, USA).
Protein Kinase Assay. The protein kinase activity of p38 was determined by measuring the incorporation of ^33P from γ-[^33P]ATP into the GST-ATF-2 substrate, amino acids 19-96 (Upstate, NY USA). […] Compounds were preincubated with 10 nM p38 for 20 min at 30° C.; the reactions were initiated by the addition of GST-ATF2 and ATP and incubated for 70 min at 30° C. before being stopped by the addition of 10 μL of 600 mM phosphoric acid. The phosphorylated substrate was captured on phosphocellulose 96-well plate (Millipore MAPHNOB 10), washed with 100 mM phosphoric acid, and counted in a BeckmenCoulter LS6500 liquid scintillation counter.

T1 sequence (Q16539 whole entry): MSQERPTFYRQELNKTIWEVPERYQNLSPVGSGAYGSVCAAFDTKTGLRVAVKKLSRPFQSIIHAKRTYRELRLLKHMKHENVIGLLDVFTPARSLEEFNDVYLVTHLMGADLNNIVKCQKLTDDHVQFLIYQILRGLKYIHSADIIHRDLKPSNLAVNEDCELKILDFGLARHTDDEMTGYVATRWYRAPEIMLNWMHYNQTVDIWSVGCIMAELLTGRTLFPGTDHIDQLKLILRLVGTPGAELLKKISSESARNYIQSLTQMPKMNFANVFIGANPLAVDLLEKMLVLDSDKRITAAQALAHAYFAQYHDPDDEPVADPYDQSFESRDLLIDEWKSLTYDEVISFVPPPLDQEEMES

SMILES | protein kinase inhibition
COC(=O)CC1C(=O)NCCN1C(=O)c1cc(C(C)(C)C)sc1NC(=O)Nc1ccc2ccccc2c1 (centres unmarked) [Example 118, {1-[5-tert-Butyl-2-(3-naphthalen-2-ylureido)thiophene-3-carbonyl]-3-oxo-piperazin-2-yl}acetic acid methyl ester] | 76-100%
CC(C)(C)c1cc(C(=O)N2CCNS(=O)(=O)CC2)c(NC(=O)NC2(c3ccccc3)CC2)s1 [Example 109, 1-[5-tert-Butyl-3-(1,1-dioxo-1λ^6-[1,2,5]thiadiazepane-5-carbonyl)thiophen-2-yl]-3-(1-phenylcyclopropyl)urea] | 26-50%
CC(C)(C)c1cc(C(=O)N2CCNS(=O)(=O)CC2)c(NC(=O)NC(C)(C)c2ccccc2)s1 [Example 97, 1-[5-tert-Butyl-3-(1,1-dioxo-1λ^6-[1,2,5]thiadiazepane-5-carbonyl)thiophen-2-yl]-3-(1-methyl-1-phenylethyl)urea] | 51-75%
CN(C)CCN1CCN(C(=O)c2cc(C(C)(C)C)sc2NC(=O)Nc2cccc(Cl)c2Cl)CCC1=O [Example 127, 1-{5-tert-Butyl-3-[4-(2-dimethylaminoethyl)-5-oxo-[1,4]diazepane-1-carbonyl]-thiophen-2-yl}-3-(2,3-dichlorophenyl)urea] | 76-100%
COCOCCN1CCN(C(=O)c2cc(C(C)(C)C)sc2NC(=O)Nc2cccc(Cl)c2Cl)CCC1=O [Example 123, 1-{5-tert-Butyl-3-[4-(2-methoxymethoxyethyl)-5-oxo-[1,4]diazepane-1-carbonyl]thiophen-2-yl}-3-(2,3-dichloro-phenyl)urea] | 76-100%
CC(C)(C)c1cc(C(=O)N2CCC(=O)N(CC(N)=O)CC2)c(NC(=O)Nc2cccc(Cl)c2Cl)s1 [Example 126, 2-(4-{5-tert-Butyl-2-[3-(2,3-dichlorophenyl)ureido]thiophene-3-carbonyl}-7-oxo-[1,4]diazepan-1-yl)acetamide] | 76-100%
CC(C)(C)c1cc(C(=O)N2CCNC(=O)CC2)c(NC(=O)Nc2cc(Cl)cc(Cl)c2)s1 [Example 117, 1-[5-tert-Butyl-3-(5-oxo-[1,4]diazepane-1-carbonyl)thiophen-2-yl]-3-(3,5-dichlorophenyl)urea] | 76-100%
CC(C)(C)c1cc(C(=O)N2CCNC(=O)CC2)c(NC(=O)Nc2ccc3ncoc3c2)s1 [Example 105, 1-Benzoxazol-6-yl-3-[5-tert-butyl-3-(5-oxo-[1,4]diazepane-1-carbonyl)-thiophen-2-yl]urea] | 76-100%
COc1ccc(NC(=O)Nc2sc(C(C)(C)C)cc2C(=O)N2CCNC(=O)CC2)cc1Cl [Example 102, 1-[5-tert-Butyl-3-(5-oxo-[1,4]diazepane-1-carbonyl)thiophen-2-yl]-3-(3-chloro-4-methoxyphenyl)urea] | 76-100%
Cn1ccc(NC(=O)Nc2sc(C(C)(C)C)cc2C(=O)N2CCNS(=O)(=O)CC2)n1 [Example 100, 1-[5-tert-Butyl-3-(1,1-dioxo-1λ^6-[1,2,5]thiadiazepane-5-carbonyl)thiophen-2-yl]-3-(1-methyl-1H-pyrazol-3-yl)urea] | 26-50%
CC1C(=O)NCCN1C(=O)c1cc(C(C)(C)C)sc1NC(=O)Nc1ccc2ccccc2c1 (centres unmarked) [Example 114, 1-[5-tert-Butyl-3(2-methyl-3-oxopiperazine-1-carbonyl)thiophen-2-yl]-3-naphthalen-2-ylurea] | 76-100%
CC(C)(C)c1cc(C(=O)N2CCNC(=O)CC2)c(NC(=O)Nc2ccnc3ccccc23)s1 [Example 122, 1-[5-tert-Butyl-3-(5-oxo-[1,4]diazepane-1-carbonyl)thiophen-2-yl]-3-quinolin-4-ylurea] | 51-75%
CC(C)(C)c1cc(C(=O)N[C@@H]2CC(=O)NC2=O)c(NC(=O)Nc2ccc(Cl)cc2)s1 [Example 101, 5-tert-Butyl-2-[3-(4-chlorophenyl)ureido]thiophene-3-carboxylic acid (2,5-dioxopyrrolidin-3-yl)amide] | 76-100%
CC(C)(C)c1cc(NC(=O)Nc2cccc(Cl)c2Cl)c(C(=O)N2CCNC(=O)CC2)s1 [Example 121, 1-[5-tert-Butyl-2-(5-oxo-[1,4]diazepane-1-carbonyl)thiophen-3-yl]-3-(2,3-dichlorophenyl)urea] | 76-100%
COCCN1CCN(C(=O)c2cc(C(C)(C)C)sc2NC(=O)Nc2cccc(Cl)c2Cl)CCC1=O [Example 125, 1-{5-tert-butyl-3-[4-(2-methoxyethyl)-5-oxo-[1,4]diazepane-1-carbonyl]-thiophen-2-yl}-3-(2,3-dichlorophenyl)urea] | 76-100%
CC(C)(C)c1cc(C(=O)N2CCNC(=O)CC2)c(NC(=O)Nc2ccc(CN)c3ccccc23)s1 [Example 112, 1-(4-Aminomethylnaphthalen-1-yl)-3-[5-tert-butyl-3-(5-oxo-[1,4]diazepane-1-carbonyl)thiophen-2-yl]urea] | 76-100%
CC(C)(C)c1cc(C(=O)N2CCNS(=O)(=O)CC2)c(NC(=O)Nc2cc(Cl)cc(Cl)c2)s1 [Example 99, 1-[5-tert-Butyl-3-(1,1-dioxo-1λ^6-[1,2,5]thiadiazepane-5-carbonyl)thiophen-2-yl]-3-(3,5-dichlorophenyl)urea] | 76-100%
CC(C)(C)c1cc(C(=O)N2CCNS(=O)(=O)CC2)c(NC(=O)Nc2cnc(O)c3ccccc23)s1 [Example 110, 1-[5-tert-Butyl-3-(1,1-dioxo-1λ^6-[1,2,5]thiadiazepane-5-carbonyl)thiophen-2-yl]-3-(1-hydroxyisoquinolin-4-yl)urea] | 26-50%
COCCOCCN1CCN(C(=O)c2cc(C(C)(C)C)sc2NC(=O)Nc2cccc(Cl)c2Cl)CCC1=O [Example 124, 1-(5-tert-butyl-3-{4-[2-(2-methoxyethoxy)ethyl]-5-oxo-[1,4]diazepane-1-carbonyl}thiophen-2-yl)-3-(2,3-dichloro-phenyl)urea] | 76-100%
CC(C)(C)c1cc(C(=O)N[C@H]2CC(=O)NC2=O)c(NC(=O)Nc2ccc3ccccc3c2)s1 [Example 113, 5-tert-Butyl-2-(3-naphthalen-2-ylureido)thiophene-3-carboxylic acid (2,5-dioxopyrrolidin-3-yl)-amide] | 76-100%
CC(C)(C)c1cc(C(=O)N2CCC(=O)N(CCC(N)=O)CC2)c(NC(=O)Nc2cccc(Cl)c2Cl)s1 [Example 129, 1-(3-(1-(3-Amino-3-oxopropyl)-7-oxo-1,4-diazepane-4-carbonyl)-5-tert-butylthiophen-2-yl)-3-(2,3-dichlorophenyl)urea] | 76-100%
CC(C)(C)c1cc(C(=O)N2CCNS(=O)(=O)CC2)c(NC(=O)Nc2ccc3ocnc3c2)s1 [Example 108, 1-Benzoxazol-5-yl-3-[5-tert-butyl-3-(1,1-dioxo-1λ^6-[1,2,5]thiadiazepane-5-carbonyl)thiophen-2-yl]urea] | 76-100%
CC1(C)OCC(CN2CCN(C(=O)c3cc(C(C)(C)C)sc3NC(=O)Nc3cccc(Cl)c3Cl)CCC2=O)O1 (centres unmarked) [Example 128, 1-{5-tert-Butyl-3-[4-(2,2-dimethyl-[1,3]dioxolan-4-ylmethyl)-5-oxo-[1,4]diazepane-1-carbonyl]thiophen-2-yl}-3-(2,3-dichlorophenyl)urea] | 76-100%
CC(C)(C)c1cc(C(=O)N2CCNC(=O)C(N)C2)c(NC(=O)Nc2cccc(Cl)c2Cl)s1 (centres unmarked) [Example 119, 1-[3-(6-Amino-5-oxo-[1,4]diazepane-1-carbonyl)-5-tert-butylthiophen-2-yl]-3-(2,3-dichlorophenyl)urea] | 76-100%
CC(C)(C)c1cc(C(=O)N2CCNC(=O)CC2)c(NC(=O)Nc2cnc(O)c3ccccc23)s1 [Example 104, 1-[5-tert-Butyl-3-(5-oxo-[1,4]diazepane-1-carbonyl)thiophen-2-yl]-3-(1-hydroxyisoquinolin-4-yl)urea] | 26-50%
Cc1cccc(NC(=O)Nc2sc(C(C)(C)C)cc2C(=O)N2CCNC(=O)CC2)c1 [Example 115, 1-[5-tert-Butyl-3-(5-oxo-[1,4]diazepane-1-carbonyl)thiophen-2-yl]-3-m-tolylurea] | 76-100%
CC(C)(C)c1cc(C(=O)N2CCNC(=O)CC2)c(NC(=O)Nc2ccc3ocnc3c2)s1 [Example 103, 1-Benzoxazol-5-yl-3-[5-tert-butyl-3-(5-oxo-[1,4]diazepane-1-carbonyl)-thiophen-2-yl]urea] | 76-100%
CC(C)(C)c1cc(C(=O)N2CCNC(=O)CC2)c(NC(=O)Nc2ccc(CN)cc2)s1 [Example 111, 1-(4-Aminomethylphenyl)-3-[5-tert-butyl-3-(5-oxo-[1,4]diazepane-1-carbonyl)thiophen-2-yl]urea] | 51-75%
Cc1cccc(NC(=O)Nc2sc(C(C)(C)C)cc2C(=O)N2CCNS(=O)(=O)CC2)c1 [Example 98, 1-[5-tert-Butyl-3-(1,1-dioxo-1λ^6-[1,2,5]thiadiazepane-5-carbonyl)thiophen-2-yl]-3-(3-tolylyl)urea] | 76-100%
